Among all 48,000 compounds or so, about 120 (0.25%) were called active. Inconclusive results (about 4%) are left out. Calls follow the shape of the dose curve; as a rule, active = well fitted activation curve with a large enough effect; inconclusive = small, poorly fitted or top-dose-only effect, or another doubt; inactive = no such curve, though single readings can be large or run the other way. The list shows a part of the results.
Test: Primary qHTS for Identification of Small Molecule Activators of Huntingtin-Antisense Promoter Activity; also: nearly all actives have a fitted effect of over 55% in size
Conditions: HEK293 HTT-AS promoter firefly luciferase reporter (activity 0% = vehicle and -100% = no light), 24 h; series mostly up to 57.5 µM; activity change, positive = activation: at the top concentration
How it was run: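 Firefly luciferase readout (Dual-Glo, 10 min RT) after 24 h, 37 °C compound exposure (final up to 57.5 uM) of HEK293 reporter cells cultured 24 h beforehand; PTC124 at 50 uM final as control inhibitor; activity scaled vehicle 0%, zero RLU -100%.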

Activity change, positive = activation, inactive:
NC(=O)c1c(OCc2c(F)cc(Br)cc2F)nsc1NC(=O)NCCCCN1CCCC1 -22.6%
CCc1ccccc1NC(=O)Cn1nc(CC)n2c(cc3sccc32)c1=O -7.11%
NC(=O)c1ccc([N+](=O)[O-])cc1Cl -3.12%
COc1ccc(-c2cc(C(=O)N3CCCCC3C)no2)cc1OC (stereo unspecified) 12.6%
CCOc1ccc(OCC)c(NC(=O)c2nnn(CC(=O)Nc3cc(Cl)ccc3OC)c2N)c1 -31.7%
NC(N)=NN=C(/C=C/c1ccc([N+](=O)[O-])o1)/C=C/c1ccc([N+](=O)[O-])o1 -79.7%
COC(=O)C1=C(C)N(C(C)C)C(=O)C1(NC(=O)c1ccccc1OC)C(F)(F)F (stereo unspecified) -7.09%
COc1ccccc1CNC(=O)C(=O)NCC(c1ccco1)S(=O)(=O)c1ccc(C)cc1 (stereo unspecified) -14.4%
CCCCCn1c(CCCNC(=O)c2ccc(Cl)cc2)nc2ccccc21 -27.1%
COc1ccc(CNC(=O)CCc2nnc3n(C)c(=O)c4sccc4n23)cc1 -8.22%
COc1ccc(-c2nc(C(=O)Nc3cccc(C(C)=O)c3)nn2-c2ccccc2Cl)cc1 -29.5%
CCOc1cc(-c2nc(-c3ccc(-c4ccccc4)nc3OCC)no2)cc(OCC)c1OCC -5.92%
COc1cc(OC)c(NC(=O)c2cnn(-c3ccccc3)c2-n2cccc2)cc1Cl -13.4%
O=C(CSc1nccn1Cc1ccc(Cl)cc1)Nc1nc2ccccc2s1 -2.62%
COCCCNC(=O)c1cc2c(-c3cccc(OC)c3)nn(C)c2s1 -19%
CCC(=O)N1CCc2cc(Br)cc(S(=O)(=O)Nc3ccccc3C(=O)OC)c21 -7.43%
Cc1ccccc1CCNC(=O)c1ccc(Cn2c(=O)c3cccn3c3cccnc32)cc1 -31.8%
CCOC(=O)[C@H](CCc1ccccc1)N[C@H]1CS[C@H](c2cccs2)CN(CC(=O)O)C1=O
CCc1ccc(NC(=O)c2cc(S(=O)(=O)N3CCCC(C)C3)cn2C)cc1 (stereo unspecified) -24%
CCOc1ccc(CNC(=O)C2CCN(C(=O)c3ccc(-n4ccc5ccccc54)s3)CC2)cc1 -22.3%
CCOc1ccc(Nc2cc(C(=O)NCc3ccccc3Cl)c3ccccc3n2)cc1 -14.3%
Cc1cccc(NC(=O)Cn2c(=O)n(CCCCCC(=O)NCc3ccccc3)c(=O)c3sccc32)c1 -18.8%
CCOC(=O)N1CCN(C(=O)c2ccc3c(c2)N(Cc2ccccc2F)C(=O)c2ccccc2S3(=O)=O)CC1 -19.5%
CCc1ccc(NC(=O)CSc2nc3c(c(=O)[nH]2)CN(Cc2ccc4c(c2)OCO4)CC3)cc1 0%
O=C(COc1ccccc1)NCC(c1ccc(Cl)cc1)N1CCCCC1 (stereo unspecified) -14.5%
Cc1ccc(C)c(N2CCN(S(=O)(=O)c3c(C(=O)N4CCC(C)CC4)c(C)n(C)c3C)CC2)c1 -23.9%
